This passage reports inhibition results from PubChem BioAssay AID588689 (Southern Research Specialized Biocontainment Screening …, 2011).

The list shows a part of the results. Shown are side measurements of this screen, not its main read-out; they come without a call.

The target in this experiment is Genome polyprotein (Dengue virus type 2 (strain 16681-PDK53)) (UniProt P29991). Put plainly: Dengue-2 NS5 methyltransferase inhibitors, primary screen, biochemical, confirmation dose response (AID 588689). The conditions noted are these: Dengue-2 NS5 methyltransferase capping enzyme assay, measured here: pilot screen replicate inhibition, at 25 µM, stronger effect = higher value.
A word on the inhibition: it is the relative decrease from the control value, in per cent. Turning to `Cc1ccc(S(=O)(=O)N2[C@@H](c3ccc(Br)cc3)C(C(=O)O)=C[C@H]2CC2CCCC2)cc1`, the inhibition is 7.95%.
The same measure for `Cc1ccc(S(=O)(=O)N2[C@@H](c3ccc(Br)cc3)C(C(=O)O)=CC[C@H]2c2ccc(C(C)C)cc2)cc1`: 9.46%; for `O=C1C(Cl)=C(N2CCCCC2)C(=O)C(Cl)=C1c1cnc(N2CCCCC2)s1`: 62.1%; for `CCOc1ccc2nc(N3CCCN(C(=O)Nc4ccccc4C)CC3)c(C#N)cc2c1`: 16.1%.
Turning to `COc1cc([N+](=O)[O-])ccc1-c1ccc(/C=N\n2cnnc2)o1`, the inhibition came out at 11.9%.
The same measure for `COc1cc2c3c(c1)-c1c(sn(-c4cc(OC)ccc4OC)c1=S)C(C)(C)N3C(=O)C2=O`: 3.64%.
The same measure for `CCOC(=O)CSc1nc2cc(OCC)ccc2cc1C#N`: 5.78%; for `CCOc1cc(C(=O)Nc2ccc3c4c(cccc24)C(=O)N3CC)cc(OCC)c1OCC`: 11.5%; for `COC(=O)C1=CN(c2cccc(C)c2)C=C(C(=O)OC)C1c1cc(OC)c(O)c([N+](=O)[O-])c1`: 5.94%.
The same measure for `CN1CCN(C2=C(Cl)C(=O)C(c3cnc(N4CCCCC4)s3)=C(Cl)C2=O)CC1`: 75.1%; for `Cc1ccc(S(=O)(=O)C(C#N)c2nc3ccccc3nc2N2CC(C)OC(C)C2)cc1C` (stereo not given): 26.6%.
Turning to `O=C(O)CCn1c2c(c3ccccc31)CCCC2`, the inhibition is -2.43%.
The same measure for `CCn1c(O)c(/C=N/N=C/c2ccccc2)c2ccc(C3=NNC(=O)CC3)cc21`: 33.4%; for `COc1cc(C2C(C#N)=C(N)Oc3c2ccc2ccccc32)ccc1OCC(=O)Nc1ccccc1C` (stereo not given): 5.63%.
The result for `CCOC(=O)C1C(=O)NC(SCC(N)=O)=C(C#N)C1c1ccccc1OCC` (stereo not given) reads 33.4%; that for `Cc1ccsc1C=Nc1ccc(O)cc1`, 5.46%.
The same measure for `CCN=c1scc(C)n1/N=C/c1ccc(O)c(O)c1O`: 66.6%.
With `O=C(O)CN1C(=O)/C(=C\c2cccc(OCc3ccccc3)c2)SC1=S`, the inhibition came to 11.6%.
Turning to `N=c1n(CCN2CCCC2)c2ccccc2n1CC(O)c1ccco1` (stereo not given), the inhibition worked out at 17.3%.
Turning to `COc1ccc(/C=c2\sc3nc(-c4ccccc4OC)nn3c2=O)c(OC)c1`, the inhibition was determined as 14%.
The result for `C=CCc1cccc(/C=N/n2cnnc2)c1O` reads 7.25%.
The result for `CCN(CC)c1nc2ccccc2nc1C(C#N)C(=O)NCCc1ccccc1` (stereo not given) reads 34.3%.
The same measure for `Cc1cc(SCC(=O)N/N=C/c2ccc(O)c(O)c2O)c(C)cc1Br`: 71.8%; for `CCc1c(C)[nH]n(-c2ccc(Oc3ccccc3)c(S(=O)(=O)O)c2)c1=O`: 20.6%.
Regarding `O=C(O)c1ccc(-n2nc(C(F)(F)F)c3c2-c2ccoc2CC3)cc1`, the inhibition is -4.87%.
The result for `CC1=CC2=C(OC1N(C)C)c1cccc3cccc(c13)C2=O` (stereo not given) reads 23.6%.
The same measure for `COc1ccc(N=c2oc3c(OC)cccc3cc2C(=O)NCc2ccco2)c(OC)c1`: 4.24%.
The same measure for `O=C(O)CC1S/C(=N/N=C/c2ccc(-c3ccccc3[N+](=O)[O-])o2)NC1=O` (stereo not given): 22.4%; for `O=C1NC(=O)/C(=C/c2ccc(-c3cc(C(=O)O)ccc3Cl)o2)S1`: 36.3%.
Consider `O=[n+]1c2c(n([O-])c3cc(F)c(N4CCCC4)cc31)CCC2`, for which the inhibition was found to be 33.4%.
`CCOc1ccc(N(C)c2ccc(/C=C3/SC(=S)NC3=O)cc2)cc1`: the inhibition amounted to 29.5%.
The same measure for `O=C(O)/C=C/C(=O)c1c(-c2ccccc2)[nH]c2ccccc12`: -3.62%; for `CCOc1ccc(C(c2c(O)nc(SC)n(C)c2=O)c2c(O)nc(SC)n(C)c2=O)cc1`: 14.3%.
The same measure for `O=Cc1ccc(Sc2nnc(-c3ccccc3)o2)c([N+](=O)[O-])c1`: 4.72%.
The result for `Nc1nonc1C(=O)NCCN=Cc1cc(Cc2ccccc2)cc(Br)c1O` reads 9.71%.
On to `COc1ccccc1Nc1nc2ccc(C)cc2cc1C#N`, for which the inhibition was determined as 3.35%.
Take `Cn1c2ccccc2c(=O)c2ccc(NCc3ccc4c(c3)OCO4)cc21`: the inhibition stood at 14%.
The same measure for `CCOc1c(Cl)cc(C(=O)Nc2ccccc2C(=O)O)cc1Cl`: 25.5%; for `CCCCCCc1cc2cc(-c3nnc(-c4ccccc4OC)o3)c(=O)oc2cc1O`: 33.9%; for `CC(=O)N1C(=O)C(=C2C=C(C)OC(C)=C2)c2ccccc21`: 33.9%.
The same measure for `CCCCCCOC(=O)C(C#N)c1nc2ccccc2nc1N1CCOCC1` (stereo not given): 18.5%; for `CC1(C)CCN2CCC(C)(C)c3c(O)ccc1c32`: 29.5%; for `O=C(Nc1ccc(-c2nc3ccccc3o2)c(O)c1)c1cc(-n2cnnc2)ccc1Cl`: -3.35%.
The same measure for `CCc1ccc([C@@H]2CC=C(C(=O)O)[C@H](c3ccc(C(C)(C)C)cc3)N2S(=O)(=O)c2ccc(C)cc2)cc1`: 12.5%; for `NC(=S)Nc1cccc2cc3ccccc3cc12`: 35.8%.
In the case of `O=C(O)c1cccc(N2C(=O)c3cc([N+](=O)[O-])cc4cc([N+](=O)[O-])cc(c34)C2=O)c1`, the inhibition is 19.5%.
On to `COc1ccc(/C=C2\C(=O)ON=C2c2ccccc2)cc1OC`, for which the inhibition came to 38.4%.
The same measure for `Cc1cc(C)n2nc3nc4c(cc3c2n1)CCCC4`: 33.9%; for `O=C(c1ccccc1NS(=O)(=O)c1ccc([N+](=O)[O-])cc1[N+](=O)[O-])N1O[C@@H]2C=C[C@H]1C2`: 45.7%.
The same measure for `Cc1ccc2c(c1)c1c(n2C)C(C(N)=O)CCC1` (stereo not given): 0.61%.
